Screen size: about 280,000 compounds; about 100 (0.036%) were called active. Inconclusive means that the source gave no clear call. Such entries were picked first, then a sample of the others. The call rests on the fitted dose curve; in most records, active means well fitted inhibition curve with a large enough effect in the signal ratio, with a control signal flat (not every such curve was filed as active); inconclusive means small, poorly fitted or top-dose-only effect, or effect the other way, or a change in a side signal; inactive means no such curve, though single readings can be large or run the other way; the % refers to the signal ratio. A potency beside an inconclusive call is a rough fit, not a confirmed value. A note “side channel” means that the fit belongs to a control or component signal, not to the main read-out.
The molecules below were run against Muscleblind-like protein 1 (Homo sapiens) (UniProt Q9NR56) (assay: qHTS Assay for Inhibitors of MBNL1-poly(CUG) RNA binding). Conditions: TR-FRET MBNL1-His/biotin-(CUG)12 binding, 665/545 ratio; activity change, negative = inhibition: at 57.5 µM (top of the series).
Procedure, shortened: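 MBNL1-His + Biotin-(CUG)12, cpd titration 92 nM–58 uM; Tb anti-His Ab 0.055 ng/ul, SA-XL665 5 nM (final); 60 min RT; ratiometric 665/545 nm, Ex 340 nm; normalized to buffer and full-complex controls.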
On the % scale 0 is the no-effect control and ±100 the full control effect; potency means the concentration at half of the fitted maximal effect; tags describe the fitted curve by direction and shape or compound fluorescence and quenching.

Chain of UniProt Q9NR56 (Q9NR56 whole entry, looked up): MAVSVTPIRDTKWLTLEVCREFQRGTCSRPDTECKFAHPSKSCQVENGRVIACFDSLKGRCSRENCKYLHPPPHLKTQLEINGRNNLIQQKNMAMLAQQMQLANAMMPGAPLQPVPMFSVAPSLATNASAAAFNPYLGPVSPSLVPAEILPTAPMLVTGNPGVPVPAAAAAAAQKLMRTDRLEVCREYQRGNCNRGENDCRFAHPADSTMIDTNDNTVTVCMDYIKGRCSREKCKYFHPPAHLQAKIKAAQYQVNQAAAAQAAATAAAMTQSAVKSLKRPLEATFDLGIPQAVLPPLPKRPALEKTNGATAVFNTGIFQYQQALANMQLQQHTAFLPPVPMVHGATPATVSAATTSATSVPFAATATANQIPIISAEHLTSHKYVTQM

Question: How did the “activity change, negative = inhibition” value turn out when Cc1ccc(O)c(C(=O)CC(=O)c2cccc(F)c2)c1 was run?
Answer: The value was inactive: 2.16%.

Question: How did the Potency turn out when O=C(CNC(=O)c1ccccc1F)N/N=C\C=C\c1ccccc1 was run?
Answer: The Potency was inconclusive: 14.1 µM [quencher, side channel, partial curve].

Question: With O=C(c1cc(S(=O)(=O)N2CCCC2)c(Cl)cc1Cl)N1CCCC1 as the molecule, how does the “activity change, negative = inhibition” value read?
Answer: The value was inactive: -6.54%.

Question: For O=C(NCc1ccccn1)c1nc(-c2ccc(C(F)(F)F)cc2)no1, which “activity change, negative = inhibition” value is on record?
Answer: The value was inactive: -2.97%.

Question: With COc1cc2c(cc1OC)CN(C(=O)COc1ccccc1C#N)CC2 as the molecule, how does the “activity change, negative = inhibition” value read?
Answer: The value was inactive: 9.94%.

Question: Which “activity change, negative = inhibition” value does the source give for CCOC(=O)c1ccc(OCCOc2cccc(C)c2)cc1 here?
Answer: Its value is inactive: -8.08%.

Question: Which “activity change, negative = inhibition” value does the source give for O=C(Nc1nc(-c2ccccn2)cs1)c1cccc(-n2cnnn2)c1 here?
Answer: The value was inactive: 5.75%.

Question: Which Potency does the source give for CC(=O)C1=C(O)C(=O)N(c2cccnc2)C1c1ccc([N+](=O)[O-])cc1 (stereo not given) here?
Answer: The Potency was inconclusive: 8.91 µM [quencher, side channel, partial curve].

Question: For CCSc1n[nH]c(=S)s1, which Potency is on record?
Answer: The Potency was inconclusive: 79.4 µM [inhibitor, single point].

Question: How did the Potency turn out when CCOC(=O)Cc1csc(NC(=O)CSc2nnc(-c3cccnc3)n2Cc2ccco2)n1 was run?
Answer: The Potency was inconclusive: 79.4 µM [inhibitor, single point].

Question: Cc1ccc(CNC(=O)/C=C/c2ccc(Br)o2)cc1 was tested. Which Potency did it give?
Answer: Its Potency is inconclusive: 39.8 µM [quencher, side channel, single point].

Question: O=c1[nH]c(/C=C/c2ccc([N+](=O)[O-])cc2)c([N+](=O)[O-])c(=O)[nH]1 was tested. Which Potency did it give?
Answer: The Potency was inconclusive: 20 µM [quencher, side channel, partial curve].

Question: For O=C(N=Nc1c(O)[nH]c2ccccc12)c1cccs1, which Potency is on record?
Answer: Its Potency is inconclusive: 11.2 µM [quencher, side channel, partial curve].

Question: Which Potency does the source give for COc1ccc(/C=C2\SC(=S)N(CCC(=O)NC3=NCCS3)C2=O)cc1OC here?
Answer: The Potency was inconclusive: 0.891 µM [quencher, side channel, full curve].

Question: For COC(=O)C1CCN(C2=C(NS(=O)(=O)c3ccc(Cl)cc3)C(=O)c3ccccc3C2=O)CC1, which Potency is on record?
Answer: Its Potency is inconclusive: 3.55 µM [quencher, side channel, partial curve].

Question: For CC(C)(C)[C@@H]1C=C(C(=O)N2CCOCC2)O[C@H](OCc2ccc(CO)cc2)C1, which “activity change, negative = inhibition” value is on record?
Answer: Its value is inactive: 0.262%.

Question: With CC(=O)N1CCc2ccc(S(=O)(=O)N3CC(C)OC(C)C3)cc21 (stereo not given) as the molecule, how does the Potency read?
Answer: Its Potency is inconclusive: 44.7 µM [fluorescent, side channel, partial curve].

Question: For COc1ccc(/C=N\NC(=O)C2COc3ccccc3O2)cc1O (stereo not given), which Potency is on record?
Answer: Its Potency is inconclusive: 25.1 µM [quencher, side channel, partial curve, poor fit].

Question: How did the Potency turn out when CCN(CC)C(=O)C[n+]1ccc(C(N)=O)cc1 was run?
Answer: Its Potency is inconclusive: 15.8 µM [quencher, side channel, partial curve].

Question: Which Potency does the source give for CCn1cc(CN(C)C(=O)/C=C/c2ccc([N+](=O)[O-])cc2)c(C)n1 here?
Answer: The Potency was inconclusive: 3.16 µM [quencher, side channel, single point].

Question: With Cc1ccc(/C(O)=C2\C(=O)C(=O)N(C)C2c2cccc([N+](=O)[O-])c2)cc1 (stereo not given) as the molecule, how does the Potency read?
Answer: The Potency was inconclusive: 20 µM [quencher, side channel, partial curve].

Question: CC(C)c1ccc(N(C(=O)c2ccco2)C(C(=O)NC2CCCC2)c2cccnc2)cc1 (stereo not given) was tested. Which “activity change, negative = inhibition” value did it give?
Answer: Its value is inactive: -3.31%.

Question: With CC(C)CNC(=O)CSc1nc(-c2cccs2)cc(C(F)(F)F)n1 as the molecule, how does the Potency read?
Answer: The Potency was inconclusive: 0.794 µM [quencher, side channel, single point].

Question: How did the Potency turn out when C[n+]1ccccc1C1CCCC/C1=N\Nc1ccc([N+](=O)[O-])cc1[N+](=O)[O-] (stereo not given) was run?
Answer: Its Potency is inconclusive: 10 µM [quencher, side channel, partial curve].

Question: With Cc1ccccc1NC(=O)CCS(=O)(=O)c1cccc2nonc12 as the molecule, how does the Potency read?
Answer: The Potency was inconclusive: 12.6 µM [quencher, partial curve].

Question: Which Potency does the source give for CN(C)S(=O)(=O)c1ccc(N)c([N+](=O)[O-])c1 here?
Answer: The Potency was inconclusive: 14.1 µM [quencher, side channel, partial curve].

Question: Which Potency does the source give for COc1ccccc1C(=O)O/N=C(/c1ccncc1)c1ccc([N+](=O)[O-])cc1 here?
Answer: The Potency was inconclusive: 7.94 µM [quencher, side channel, full curve].

Question: With C=CCc1c(C)nc(SC)nc1Nc1ccc(C(C)=O)cc1 as the molecule, how does the Potency read?
Answer: The Potency was inconclusive: 28.2 µM [quencher, side channel, single point].

Question: With C=CCN1C=C2C(=O)C(C)(OC(=O)CCC(=O)OC)C(=O)C(Br)=C2C=C1c1ccc(OC)cc1 (stereo not given) as the molecule, how does the Potency read?
Answer: The Potency was inconclusive: 22.4 µM [quencher, side channel, single point].

Question: COc1ccc(C(=O)NCC(=O)c2ccccc2)cc1 was tested. Which “activity change, negative = inhibition” value did it give?
Answer: The value was inactive: -2.67%.

Question: How did the Potency turn out when CCCCN1C(=O)C(=O)N(c2ccccc2)C1=S was run?
Answer: Its Potency is inconclusive: 17.8 µM [quencher, side channel, partial curve].

Question: How did the Potency turn out when Cc1nc([N+](=O)[O-])c(Br)n1CC(=O)c1ccc(Br)cc1 was run?
Answer: The Potency was inconclusive: 31.6 µM [quencher, side channel, single point].

Question: How did the Potency turn out when COCCCn1cnc2c(c1=O)c1nc3ccccc3nc1n2CCc1ccccc1 was run?
Answer: Its Potency is inconclusive: 4.47 µM [quencher, side channel, full curve, poor fit].

Question: For Cc1nnc(C)c2c(C)n(-c3ccccc3N)c(C)c12, which Potency is on record?
Answer: The Potency was inconclusive: 17.8 µM [quencher, side channel, partial curve].

Question: COc1cc(/C=N\Nc2nc3ccccc3o2)cc(OC)c1OC was tested. Which Potency did it give?
Answer: The Potency was inconclusive: 1.26 µM [quencher, side channel, full curve].

Question: With COc1cnc(-c2ccccn2)nc1Sc1ccc(F)cc1 as the molecule, how does the “activity change, negative = inhibition” value read?
Answer: The value was inactive: -1.5%.

Question: CCCCCCn1c(COc2ccccc2F)nnc1SCC(=O)c1c(N)n(C)c(=O)n(C)c1=O was tested. Which activity change, negative = inhibition did it give?
Answer: The activity change, negative = inhibition was inconclusive: -13.7% [phenotype inactive].

Question: Which Potency does the source give for CC[C@@H](C)[C@H](NC(=O)Cc1c(C)c2c(cc(C)c3c(C)coc32)oc1=O)C(=O)O here?
Answer: The Potency was inconclusive: 31.6 µM [quencher, side channel, single point].

Question: With COc1ccc(C(=O)COC(=O)c2ccc3ccccc3n2)cc1 as the molecule, how does the Potency read?
Answer: The Potency was inconclusive: 25.1 µM [quencher, side channel, single point].

Question: Which Potency does the source give for CCOc1ccc(CN2C(=O)c3ccccc3C2=O)cc1C(=O)N1CCC(C(N)=O)CC1 here?
Answer: The Potency was inconclusive: 15.8 µM [quencher, side channel, partial curve].

Question: CO/N=C/c1ccc(N2CCN(C(=O)c3cccc(C(F)(F)F)c3)CC2)c([N+](=O)[O-])c1 was tested. Which Potency did it give?
Answer: The Potency was inconclusive: 1.26 µM [quencher, side channel, full curve, poor fit].

Question: How did the Potency turn out when COc1cc(C(=O)N=c2sccn2C)c([N+](=O)[O-])cc1OC was run?
Answer: Its Potency is inconclusive: 6.31 µM [quencher, side channel, partial curve].

Question: For COc1ccc(-n2c(N)c(C(=O)NCC3CCCO3)sc2=S)cc1 (stereo not given), which Potency is on record?
Answer: Its Potency is inconclusive: 14.1 µM [quencher, side channel, partial curve].

Question: CCn1c(CSc2nccn2C)nc2cc(C(=O)O)ccc21 was tested. Which Potency did it give?
Answer: The Potency was inconclusive: 15.8 µM [quencher, side channel, partial curve].

Question: For COc1ccc(/C=N/NC(=O)c2cc(OC)c(OC)c(OC)c2)cc1CN1CCc2cc(OC)c(OC)cc2C1C (stereo not given), which Potency is on record?
Answer: The Potency was inconclusive: 100 µM [inhibitor, single point].

Question: Cc1cccc(-c2cc3c(nn2)-c2ccccc2C3=O)c1 was tested. Which Potency did it give?
Answer: The Potency was inconclusive: 2.82 µM [quencher, full curve].

Question: With Cc1ccc(NCC(=O)NNC2=NCCC2)c(C)c1 as the molecule, how does the Potency read?
Answer: The Potency was inconclusive: 0.631 µM [quencher, side channel, single point].

Question: Which Potency does the source give for CC1=NOC(=O)/C1=C/c1ccc(N(C)C)cc1 here?
Answer: The Potency was inconclusive: 39.8 µM [quencher, side channel, single point].

Question: For COc1ccc2oc(-c3ccccc3)c(C(=O)N3CCOCC3)c2c1, which “activity change, negative = inhibition” value is on record?
Answer: The value was inactive: 4.95%.

Question: COc1cc(/C=C/C(=O)Nc2cccnc2)cc(OC)c1OC was tested. Which Potency did it give?
Answer: Its Potency is inconclusive: 12.6 µM [quencher, side channel, partial curve].

Question: How did the Potency turn out when Cc1cccc(N2C(=O)CC(SC(=Nc3ccccc3)Nc3ccccc3)C2=O)c1 (stereo not given) was run?
Answer: Its Potency is inconclusive: 0.891 µM [quencher, side channel, single point].

Question: How did the “activity change, negative = inhibition” value turn out when c1coc(CNc2c3c(nc4ncnn24)CCCC3)c1 was run?
Answer: Its value is inactive: -8.05%.

Question: For O=C(O)c1ccc(CNS(=O)(=O)c2ccc(Oc3ccccc3Cl)cc2)cc1, which Potency is on record?
Answer: Its Potency is inconclusive: 6.31 µM [fluorescent, side channel, single point].

Question: Which Potency does the source give for CCOC(=O)c1cc(-c2ccccc2)sc1N here?
Answer: The Potency was inconclusive: 20 µM [quencher, side channel, single point].

Question: Nc1nn2c(-c3ccccc3)cc(=O)[nH]c2c1N=Nc1ccc(O)cc1 was tested. Which Potency did it give?
Answer: Its Potency is inconclusive: 3.16 µM [quencher, side channel, full curve].

Question: Which Potency does the source give for Cc1csc(NC(=O)c2cnc3ccccc3n2)n1 here?
Answer: The Potency was inconclusive: 5.62 µM [quencher, side channel, partial curve].

Question: For COc1ccc(-n2c(C)c([N+](=O)[O-])c3ccc(O)c(CN(C)C)c32)cc1, which Potency is on record?
Answer: Its Potency is inconclusive: 11.2 µM [quencher, side channel, partial curve].

Question: With O=[N+]([O-])c1ccccc1S(=O)(=O)NCCc1ccncc1 as the molecule, how does the Potency read?
Answer: Its Potency is inconclusive: 28.2 µM [quencher, side channel, partial curve].

Question: With CCN(CC)c1ccc(/C=N/NC(=O)CNC(=O)c2cccs2)cc1 as the molecule, how does the Potency read?
Answer: Its Potency is inconclusive: 25.1 µM [quencher, single point].

Question: With CCc1cc(-c2n[nH]c(=S)n2C(C)c2ccccc2)cs1 (stereo not given) as the molecule, how does the “activity change, negative = inhibition” value read?
Answer: The value was inactive: -9.47%.

— PubChem BioAssay AID2675 (National Center for Advancing Translational Sciences (NCATS), 2010)
